Measured values taken from the RNAGym collection of RNA variant scans (doi:10.1093/nar/gkz1192).
The source gives no read counts; variants with many changes may rest on few reads.

B1: CPEB3 Ribozyme (parent)
chain: UAACAGGGGGCCACAGCAGAAGCGUUCACGUCGCAGCCCCUGUCAGAUUCUGGUGAAUCUGCGAAUUCUGCUGUAUAUCUC

Variants of: B1
Assay: self-cleavage, relative activity (ratio to wild type); higher = more cleavage; in vitro, sequencing
How it was run: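 Relative activity was defined as the cleaved/total read fraction for a variant divided by the same fraction for the unmutated ribozyme. CPEB3 self-cleaving ribozyme libraries were made by rounds of error-prone PCR, barcoded, and transcribed in vitro with T7 RNA polymerase for 5 hours at 37°C, and cleavage ran through transcription plus a 15 min DNase I step before EDTA. Illumina sequencing of template-switched reverse transcripts gave the reads, and DNA sequencing mapped the barcodes. Averages come from three batches, using variants with at least 5 reads.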
For A21G A35G A65C U67C, the self-cleavage was 0.2.
For A21G U25C C68A, the self-cleavage was 0.31.
For A21G U41C U54G, the self-cleavage was 0.34.
A21G C40G A47U showed a self-cleavage of 0.26.
Variant A21G U26A U43C U54C U80A has a self-cleavage of 0.08.
In the case of A21G A45C U54A U60C U74C, the self-cleavage is reported as 0.07.
A21U U25A U31A U58C A77C showed a self-cleavage of 0.06.
For A21U G61A A64G, the self-cleavage was 0.09.
For A20U U48C U69C U80A, the self-cleavage was 0.17.
In the case of A21G C23A U26C, the self-cleavage is reported as 0.07.
A21U U25C C40U A45C C68G U69C showed a self-cleavage of 0.04.
A20U U60A C62U U67C U74C gave a self-cleavage of 0.08.
A21G U41A A64U U78A gave a self-cleavage of 0.06.
A21C U26A G36U U41C A77G U78C showed a self-cleavage of 0.09.
Variant A21G U25G U54A has a self-cleavage of 0.38.
A21G C34G U80C showed a self-cleavage of 0.15.
In the case of A21G U25G C34G, the self-cleavage is reported as 0.14.
A21G C40A U41C showed a self-cleavage of 0.27.
Variant A21G U25C C32A U48C has a self-cleavage of 0.04.
Work on A21U U41A U54G A56G U60G U72C yielded a self-cleavage of 0.06.
Variant A21G G30U U41C U72C U78A has a self-cleavage of 0.05.
Variant A21G A45C U49A U60A U69C A77G has a self-cleavage of 0.17.
Work on A21G A28G U49A U54A A57C U72C yielded a self-cleavage of 0.04.
Variant A21G U49A G53U has a self-cleavage of 0.3.
Work on A21U U41A U43C A47G U78C yielded a self-cleavage of 0.18.
Work on A21G U43C U49C G52A U54C A75U yielded a self-cleavage of 0.2.
For A21G A28C U31C U69C, the self-cleavage was 0.06.
With A21G U26A C38U U41C U49C U58C the self-cleavage was 0.05.
In the case of A21G G30C A65G, the self-cleavage is reported as 0.14.
In the case of A21G U25A U72A, the self-cleavage is reported as 0.18.
A21G C23A A45G U48C gave a self-cleavage of 0.41.
With A21G A47G U66C the self-cleavage was 1.05.
With A21U C29U U43C A47G A64G the self-cleavage was 0.26.
A21G U41C U60C showed a self-cleavage of 0.36.
With A21G C29U G55U U72C the self-cleavage was 0.32.
In the case of A21G U31C A47G U51C U60A U72C, the self-cleavage is reported as 0.08.
A21G A28G A35G A65U A77G showed a self-cleavage of 0.12.
In the case of A21G A64G U80C, the self-cleavage is reported as 0.52.
Variant A21G A28U U54C U72A G73A U80C has a self-cleavage of 0.62.
In the case of A21G U25C C29G A35U A57G U80C, the self-cleavage is reported as 0.05.
Work on A21C U25C U26C C32U yielded a self-cleavage of 0.04.
With A21G U54C A56G U74A the self-cleavage was 0.09.
A21G A28G U80C showed a self-cleavage of 0.42.
A21G C37G U76G U78C showed a self-cleavage of 0.12.
Work on A21G A45U U80A yielded a self-cleavage of 0.36.
Work on A21G A35U G52A U80G yielded a self-cleavage of 0.26.
For A21G U31C C37A U74C, the self-cleavage was 0.08.
Work on A21G U31G U74C yielded a self-cleavage of 0.61.
A21G C34A U72A U80G gave a self-cleavage of 0.34.
Variant A21G G30U U41C C62A U80A has a self-cleavage of 0.05.
A21G A47C U49C U51A gave a self-cleavage of 0.2.
For G22A U26C A35G U41A, the self-cleavage was 0.06.
Work on A21G U41A U51A U69C U80C yielded a self-cleavage of 0.18.
A21U U41A C50G A57G U60A gave a self-cleavage of 0.19.
G22C U41A U60A showed a self-cleavage of 0.2.
Work on A21U C37A G53A U60C yielded a self-cleavage of 0.13.
For A21G U69C U72A U78C, the self-cleavage was 0.21.
With A21G U49C U69A the self-cleavage was 0.15.
A20U U74C C81U gave a self-cleavage of 0.62.
With A21G U60A U69A the self-cleavage was 0.11.
Work on A21G A56U U67G U69C A77G yielded a self-cleavage of 0.06.
In the case of A21G U31A C62U U69A, the self-cleavage is reported as 0.06.
In the case of A21G U41C U51C, the self-cleavage is reported as 0.61.
Work on G22A A35G U51C U60C U66C U72C yielded a self-cleavage of 0.12.
A21G C37U U48C G70C showed a self-cleavage of 0.07.
In the case of A21G U31G A64G C71U, the self-cleavage is reported as 0.15.
Work on A21G U43A U67A U69C yielded a self-cleavage of 0.13.
In the case of A21G U31C G33A U41A, the self-cleavage is reported as 0.21.
In the case of A21G C32U G53A U67A, the self-cleavage is reported as 0.07.
With A21G U51C U74C the self-cleavage was 1.08.
A21G A28G U67C A77G U80C showed a self-cleavage of 0.04.
For A21G G30U A45U A56G, the self-cleavage was 0.09.
Variant A21G C44G U60C U66C has a self-cleavage of 0.06.
A21G A35G C71A gave a self-cleavage of 0.38.
Variant A21U U25A C44U C62U A65G has a self-cleavage of 0.03.
In the case of A21G A64U U69G, the self-cleavage is reported as 0.33.
Variant A21G A45G C50G has a self-cleavage of 0.16.
Variant A21G U41A U69G has a self-cleavage of 0.3.
With A21U U54A G70A the self-cleavage was 0.44.
Work on A21G A57U U67C A75G yielded a self-cleavage of 0.19.
A21G G42A U60C showed a self-cleavage of 0.19.
A21G U43G A75G showed a self-cleavage of 0.12.
In the case of A21G U31A G70U, the self-cleavage is reported as 0.37.
A21U U31C U51C U76A showed a self-cleavage of 0.14.
